# Reference: article PMC4336329 (PLoS ONE, 2015)
# Screen size: about 310,000 compounds; about 14,000 (4.5%) showed an effect of 50% or more. The effect is printed as a negative number. The list shows a part of the results.
# Target: human ether-à-go-go-related gene (hERG) potassium channel (human, UniProt Q12809)
# Test: primary screen, population patch clamp on CHO cells stably expressing hERG
# 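Note: peak tail current of the secondary pulse compared with the same well before compound.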
# human ether-à-go-go-related gene (hERG) potassium channel, sequence (Q12809 whole entry, looked up): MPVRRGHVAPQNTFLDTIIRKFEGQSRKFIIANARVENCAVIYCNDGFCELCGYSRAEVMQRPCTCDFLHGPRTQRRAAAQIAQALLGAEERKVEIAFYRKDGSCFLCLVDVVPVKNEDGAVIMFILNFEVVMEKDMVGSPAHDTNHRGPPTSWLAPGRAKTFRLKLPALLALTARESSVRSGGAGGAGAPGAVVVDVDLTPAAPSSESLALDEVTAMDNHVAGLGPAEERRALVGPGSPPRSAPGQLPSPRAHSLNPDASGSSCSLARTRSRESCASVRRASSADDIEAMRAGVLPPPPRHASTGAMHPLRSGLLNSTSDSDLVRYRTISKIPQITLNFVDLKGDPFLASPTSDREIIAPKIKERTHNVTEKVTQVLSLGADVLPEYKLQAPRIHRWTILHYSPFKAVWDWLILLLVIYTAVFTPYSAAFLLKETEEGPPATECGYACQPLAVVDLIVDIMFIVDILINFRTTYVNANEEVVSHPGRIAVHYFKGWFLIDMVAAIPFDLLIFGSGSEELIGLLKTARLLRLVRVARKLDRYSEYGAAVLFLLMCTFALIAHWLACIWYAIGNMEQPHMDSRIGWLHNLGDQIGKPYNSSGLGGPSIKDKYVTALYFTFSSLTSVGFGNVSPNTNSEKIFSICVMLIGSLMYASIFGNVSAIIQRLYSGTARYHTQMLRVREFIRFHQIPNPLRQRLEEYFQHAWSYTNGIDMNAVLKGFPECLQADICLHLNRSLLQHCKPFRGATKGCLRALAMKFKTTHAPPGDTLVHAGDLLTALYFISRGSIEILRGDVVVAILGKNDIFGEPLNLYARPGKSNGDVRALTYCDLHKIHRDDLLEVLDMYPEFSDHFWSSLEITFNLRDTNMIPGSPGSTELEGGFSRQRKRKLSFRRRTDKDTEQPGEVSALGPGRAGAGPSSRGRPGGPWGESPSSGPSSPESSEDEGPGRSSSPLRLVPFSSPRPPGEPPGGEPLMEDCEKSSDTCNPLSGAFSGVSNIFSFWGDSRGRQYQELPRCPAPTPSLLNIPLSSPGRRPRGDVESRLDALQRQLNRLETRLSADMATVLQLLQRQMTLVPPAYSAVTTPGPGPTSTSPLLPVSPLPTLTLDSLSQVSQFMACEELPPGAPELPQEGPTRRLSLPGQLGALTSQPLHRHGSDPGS
row,Structure (SMILES),"hERG current change (%, negative = inhibition) at 10uM [%]"
1,CCN(c1ccccc1)S(=O)(=O)c1ccc(OC)c(NC(=O)CN(C)C)c1.O=C(O)C(=O)O,-5.1
2,O=C(OCC(=O)N1CCOCC1)c1ccccc1OCc1ccccc1,-1.44
3,COc1ccc(C(CNC(=O)c2oc3c(Cl)cccc3c2C)N2CCCC2)cc1 (stereo not shown),-50.9
4,O=[N+]([O-])c1ccccc1-c1cc(-c2cc(Cl)ccc2O)n[nH]1,-2.62
5,Cc1ccc2c(c1)C1CN(C)CCC1N2C(=S)NC(=O)c1ccc(Br)cc1 (stereo not shown),-67.1
6,COc1cccc(CN(C)C(=O)CN2C(=O)NC3(CCCc4ccccc43)C2=O)c1 (stereo not shown),-8.47
7,CC(=O)Oc1cc2c(cc1Cl)C1(CC(c3ccccc3Cl)O2)CC(C)(C)NC(=S)N1 (stereo not shown),1.38
8,CCOC(=O)c1c(C)[nH]c(C)c1S(=O)(=O)N(C)CC(=O)NCc1ccc(F)cc1,-20.9
9,COc1ccc(NC(=O)c2cc3c(s2)CCC3)cc1S(=O)(=O)N1CCOCC1,-13.3
10,Cc1nonc1C(=O)N/N=C/c1ccc(O)cc1,3.65
11,Cc1cc(=O)[nH]c(SCC(=O)Nc2ccc(F)c([N+](=O)[O-])c2)n1,5.75
12,CN(C(=O)COc1ccccc1)C1CCS(=O)(=O)C1 (stereo not shown),20.9
13,Cn1cc([N+](=O)[O-])c(C(=O)N2CCCCCC2)n1,-12.3
14,O=C(Nc1nc(-c2ccc3c(c2)OCO3)cs1)C1CC1,-5.75
15,O=C(NCCC(=O)N1CCCCCCC1)c1ccc(Cl)cc1,0.252
16,COc1ccccc1N1CCN(C2CCN(C(=O)c3cc(OC)c(OC)c(OC)c3)CC2)CC1,-23.1
17,O=[N+]([O-])c1nn(-c2ccc3c(c2)OCCO3)n(O)c1=NC1CCCCCC1,-0.515
18,Cc1cc(=O)[nH]c(N/N=C/CCc2ccccc2)n1,8.3
19,N/C(=N\OC(=O)C1CCCCC1)c1ccncc1,14
20,O=S(=O)(O)c1cccc2cccc(Nc3ccccc3)c12,-2.85
21,CCC1C(=O)NCCN1C(=O)c1ccccc1OC1CCN(S(C)(=O)=O)CC1 (stereo not shown),38.1
22,COc1ccccc1NS(=O)(=O)c1cccc(C(=O)NN=C2CCCCCC2)c1,2.09

row,Structure (SMILES),"hERG current change (%, negative = inhibition) at 10uM [%]"
1,Cc1cccc(OCc2nnc(SCC(=O)N3CCCC3)o2)c1,7.09
2,Cc1nn(CC(=O)Nc2ccc3c(c2)oc2ccccc23)c(=O)c2ccccc12,14.1
3,CSc1nc(O)c(Cc2ccccc2)c(=O)[nH]1,15.6
4,Cc1ccc(C)c(S(=O)(=O)N2CCN(C(C)C(=O)Nc3ccccc3-c3ccccc3)CC2)c1 (stereo not shown),-9.2
5,CN(C1CCCCC1)S(=O)(=O)c1ccc(-n2cnnn2)cc1,-29
6,COc1ccc(C2C(C#N)=C(N)Oc3cc(C)n(Cc4ccco4)c(=O)c32)cc1 (stereo not shown),-9.9
7,CC(=O)N1CCC(Nc2ccc(C)cc2)CC1,-2.08
8,COc1cc(C)nc(NS(=O)(=O)c2ccccc2)n1,7.87
9,Cc1nc(NC(=S)NC(=O)COc2ccccc2Cl)ccc1Br,-3.72
10,COc1cc(-n2c(C)nc3cc(C(=O)NCc4ccco4)ccc32)cc(OC)c1OC,6.39
11,O=C(NCCCCc1ccccc1)C12CN(Cc3ccccc3)CC1C(c1ccc([N+](=O)[O-])cc1)=NO2 (stereo not shown),5.9
12,O=C(CSc1nc2ccccc2c(=O)n1-c1ccccc1Cl)NCC1CCCO1 (stereo not shown),-5.62
13,CCOc1ccccc1NC(=O)Cn1c(C)cc(COC)c(C#N)c1=O,7.92
14,CC12CCC(C(=O)NNc3ccccc3)(C(=O)C1=O)C2(C)C (stereo not shown),14.6
15,O=S(=O)(NCC1CCCN(Cc2ccccc2)C1)c1cccc2cccnc12 (stereo not shown),-9.85
16,CCCCCCC1C(C#N)=C(N)OC2=C1C(=O)CC(C)(C)C2 (stereo not shown),-0.43
17,C=CCOc1ccc(C2NC(=O)c3ccccc3O2)cc1 (stereo not shown),10.2
18,C=CCn1c(C)cc(C(=O)COC(=O)c2ccc3c(c2)NC(=O)CS3)c1C,4.69
19,C[n+]1c2n(c3ccccc31)N=C(c1ccc(Cl)cc1)CS2.[Br-],-69
20,COc1c(C(=O)NC(=S)Nc2nnn(C)n2)cc2ccccc2c1Br,2.09
21,CN(C(=O)C1CCN(S(=O)(=O)c2cccs2)CC1)c1ccccc1,-16.9
22,CCc1ccc(N2C(=O)C(Cl)=C(N3CCCCCC3)C2=O)cc1,17

row,Structure (SMILES),"hERG current change (%, negative = inhibition) at 10uM [%]"
1,CCN1CCN(C(=O)Cn2ncc3ccsc3c2=O)CC1,16.3
2,Cc1ccccc1OCc1nc2ccccc2c(=O)n1NC(=O)c1ccco1,13.8
3,COc1ccc2[nH]cc(C(=O)CN3CCN(C4CCCCC4)CC3)c2c1,-54.8
4,CC(=O)c1ccc(NC(=S)NC(C)c2ccc(Cl)cc2Cl)cc1 (stereo not shown),16.8
5,CCCCN(C)S(=O)(=O)c1ccc(C(=O)Nc2nnc(C3=COCCO3)o2)cc1,0.996
6,CN1CCN(c2nc(-c3ccc(Cl)cc3)cc(=O)[nH]2)CC1,-15.7
7,CC(=O)Nc1ccc(S(=O)(=O)N2CCC(c3nc4c(nnn4Cc4ccccc4Cl)c(=O)[nH]3)CC2)cc1,9.32
8,O=C(NCc1ccccn1)c1cccc(NS(=O)(=O)c2ccccc2F)c1,-0.556
9,COc1ccccc1C(=O)NNC(=S)NC(=O)c1ccco1,21.6
10,O=P(c1ccccc1)(c1ccccc1)C1CCCO1 (stereo not shown),0.551
11,NC(=O)COc1ccc2cc(-c3ccccc3)c(=O)oc2c1,-17.9
12,Cc1ccc(NC(=O)CS(=O)CC(=O)N(CC(=O)NC(C)(C)C)c2cccc(C)c2C)cc1 (stereo not shown),-0.116
13,Cc1cc(C)cc(-n2c(=O)c3ccccc3n(CC(=O)NCC3CCCO3)c2=O)c1 (stereo not shown),9.45
14,COC(=O)c1cc(-c2cccc(OC)c2)c2c(=O)[nH]c(=O)n(C)c2n1,13
15,CSc1nc(N)nc(SCC(=O)OC(C)C)c1C#N,-10.5
16,Cc1cc(=O)c2cc(Br)ccc2n1CC(=O)NCc1ccccc1,-12.8
17,Cc1cccc(-n2ncc3c(NCc4cccs4)ncnc32)c1,4.07
18,Cn1c(CCNC(=O)c2ccc(Cl)c(Cl)c2)nnc1SCc1ccc(Cl)c(Cl)c1,8.82
19,Cc1ccccc1NC(=O)c1ccc(N/N=C/c2ccccc2O)c([N+](=O)[O-])c1,9.72
20,CCOc1ccc(Br)cc1-c1noc(-c2cccs2)n1,4.31
21,CC(C)c1ccc(NC2CCCN(C(=O)c3ccc(N4CCOCC4)cc3)C2)cc1 (stereo not shown),-13
22,CCc1ccc(N2CC(C(=O)NCc3ccco3)CC2=O)cc1 (stereo not shown),-2.58

row,Structure (SMILES),"hERG current change (%, negative = inhibition) at 10uM [%]"
1,CCn1c(SCC(=O)Nc2ccc3c(c2)c2ccccc2n3CC)nnc1-c1cnccn1,-14.5
2,O=C(CSc1nnc(-c2cccnc2)n1-c1ccccc1)Nc1ccccn1,-41
3,Cc1cc(N)nc2nc(C(F)(F)F)nn12,9.99
4,CN1CCN(NC(=O)C2CC2)CC1,-0.439
5,Nc1c([N+](=O)[O-])cc(F)c(N2CCNCC2)c1Br,-9.57
6,COc1ccc(-n2c(NCCN(C)C)nc3sc4c(c3c2=O)CCCCC4)cc1,-72.7
7,COc1cc2c(C(=O)O)c(C)n(-c3ccccc3)c2c2ccccc12,6.21
8,COc1cc(NC(=O)c2cccnc2SC)cc(OC)c1,10.2
9,Cc1ccc(S(=O)(=O)NCC(c2ccco2)S(=O)(=O)c2ccccc2)cc1 (stereo not shown),-18.4
10,CCOc1cc(C2C(C(=O)N3CCCCC3)=C(C)NC3=C2C(=O)CCC3)cc(Br)c1O (stereo not shown),0.0163
11,CC(C)NC(=O)COc1ccc(S(=O)(=O)N(C)Cc2ccccc2)cc1,-40.7
12,Cc1ccc(Cn2c(SCC(=O)NCc3ccco3)nc3ccsc3c2=O)cc1,-31.9
13,COc1ccc(-c2ccc(-c3noc(C)n3)c(OC)n2)cc1,6.31
14,Cc1[nH]c2c(C)cccc2c1CCNC(=O)C1CCCCC1C(=O)OCC(F)(F)F (stereo not shown),-7.82
15,COS(=O)(=O)[O-].Cn1c(-c2ccccc2)c[n+]2c1-c1ccccc1C2,-1.85
16,CC(NC(=O)c1ccco1)C(=O)N1CCc2ccccc2C1 (stereo not shown),12.2
17,COC(=O)c1ccc(/C=C2/SC(=S)N(CCC(=O)NCCCN3CCOCC3)C2=O)cc1,7.24
18,CCOC(=O)c1cc(-c2ccccc2C)n(CC2CC(c3cccc([N+](=O)[O-])c3)=NO2)n1 (stereo not shown),0.113
19,COc1cc([N+](=O)[O-])ccc1N1C(=O)C2C3C=CC(C4CC34)C2C1=O (stereo not shown),-28.3
20,CCCOc1ccc(/C=N/Nc2ccccn2)cc1OC,13.1
21,CSc1nc(N)c2c(C)c(C)sc2n1,11.5
22,c1ccc(-c2nnc(-c3ccccn3)nn2)nc1,-6.12
